Experimental data published in PubChem BioAssay AID1745853 (National Center for Advancing Translational Sciences (NCATS), 2022).
The other results are listed elsewhere or left out. These are further read-outs of the screen, such as a control signal, another cell line or another target. No call is given for them.

Assays:
Assay in all cases: Primary Screen for Target Class Profiling of Small Molecule Inhibitors of Methyltransferases
[1] = target: Glycine N-methyltransferase (Homo sapiens) (UniProt Q14749); details: purified enzyme, MTase-Glo SAH luminescence; measured here: GNMT inhibition; at 40 µM; stronger effect = lower value
Method in brief: (§1)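 Each enzyme was reacted with SAM and its substrate, with compounds tested once at 40 uM; SAH formed was read by MTase-Glo luminescence.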

[2] = target: Guanidinoacetate N-methyltransferase (Homo sapiens) (UniProt Q14353); details: purified enzyme, MTase-Glo SAH luminescence; measured here: GAMT inhibition; at 40 µM; stronger effect = lower value
Method in brief: as §1

[3] = target: Histamine N-methyltransferase (Homo sapiens) (UniProt P50135); details: purified enzyme, MTase-Glo SAH luminescence; measured here: HNMT inhibition; at 40 µM; stronger effect = lower value
Method in brief: as §1

[4] = target: Nicotinamide N-methyltransferase (Homo sapiens) (UniProt P40261); details: purified enzyme, MTase-Glo SAH luminescence; measured here: NNMT inhibition; at 40 µM; stronger effect = lower value
Method in brief: as §1

[5] = target: Phenylethanolamine N-methyltransferase (Homo sapiens) (UniProt P11086); details: purified enzyme, MTase-Glo SAH luminescence; measured here: PNMT inhibition; at 40 µM; stronger effect = lower value
Method in brief: as §1
% is set by controls: 0 for no effect and ±100 for the full control effect.

| SMILES | activity change, negative = inhibition [1] | activity change, negative = inhibition [2] | activity change, negative = inhibition [3] | activity change, negative = inhibition [4] | activity change, negative = inhibition [5] |
| --- | --- | --- | --- | --- | --- |
| CC(C)CCNC(=O)C1(C)Cn2nc(C(=O)NC3CCCCC3)cc2C(=O)N1C (stereo not given) | 7.79% | 0.763% | 9.81% | 10.1% | 5.84% |
| COCCNC(=O)c1cc(N2CCOCC2)cc2c1OCCN2C | -5.69% | -7.23% | -1.11% | -16.3% | -15.8% |
| Cc1ccc(Cn2nc3n(CC(C)C)c(=O)c4ccc(C(=O)NC5CCCC5)cc4n3c2=O)cc1 | 1.82% | 2.58% | 4.38% | -0.506% | -0.248% |
| CCOCCCN1C(=O)c2ccc(-c3ccco3)n2CC1(C)C(=O)NC1CCCCCCC1 (stereo not given) | -7.84% | -3.13% | -1.68% | -10.8% | -4.76% |
| CCN(CCCNC(=O)CCCc1nnc2n3nc(-c4ccccc4)nc3c3ccccc3n12)c1ccccc1 | -10.6% | 1.04% | -19.9% | -5.02% | -10.6% |
| Cc1cccc(C(=O)Nc2c(N3CCCCC3)c(-c3cccc(F)c3)nn2C)c1 | 4.22% | 1.86% | 1.36% | -0.145% | -23.5% |
| CC(C)NC[C@H]1O[C@@H](CO)[C@@H](O)[C@H]1N1CCN(C)CC1 | -2.28% | -2.48% | -0.826% | -7.56% | -3.93% |
| Cc1ccccc1NC(=O)Cn1nc2n(C)c(=O)c3ccc(C(=O)NC4CCCCC4)cc3n2c1=O | -0.106% | 0.195% | 0.28% | -3.61% | -4.07% |
| O=C(C1CC(c2ccc(F)cc2)=NO1)N1CCN(c2ccc(F)cc2)CC1 (stereo not given) | -2.68% | 2.68% | -7.87% | -1.01% | -10.3% |
| CCCn1c(=O)c2ccc(C(=O)NC(C)CC)cc2n2c(=O)n(CC(=O)Nc3ccccc3CC)nc12 (stereo not given) | -3.42% | -3.24% | -0.471% | -4.12% | -5.46% |
| CC1(C(=O)NC2CCCCCC2)Cc2ccccc2C(=O)N1CCc1ccccc1 (stereo not given) | 3.04% | 1.3% | 9.08% | 1.81% | 2.93% |
| COC(=O)c1ccccc1C(=O)N1CCNC(=O)C1Cc1ccccc1 (stereo not given) | -1.2% | -0.181% | -0.922% | -0.765% | -21.8% |
| O=C(CCn1ccc2cc(S(=O)(=O)N3CCCCC3)ccc21)NCc1ccc2c(c1)OCO2 | 1.32% | 0% | -0.363% | -4.68% | 1.48% |
| CC(C)CCn1c(=O)c2ccc(C(=O)NC3CCCC3)cc2n2c(=O)n(CC(=O)NC3CCCC3)nc12 | 0.158% | 0.975% | 1.26% | -4.33% | -6.24% |
| NC(=O)C1CCN(C(=O)[C@H]2C[C@@H](O)[C@H](O)[C@@H]3N=C(Nc4cccc(C(F)(F)F)c4)S[C@@H]32)CC1 | -1.97% | -2.27% | 0.531% | -6.61% | -2.01% |
| CC(C)(C)c1ccc(-c2nc3ccccc3[nH]2)cc1 | -48.1% | -69% | -41.6% | -71.9% | -65.5% |
| CC(C)CNC(=O)c1ccc2c(=O)n(CC(C)C)c3nn(Cc4ccccc4Cl)c(=O)n3c2c1 | 1.53% | 0% | 2.65% | -0.49% | 2.77% |
| C=Cc1ccc(Cn2nc3n(C)c(=O)c4ccc(C(=O)NC5CCCC5)cc4n3c2=O)cc1 | -0.829% | 1.67% | 8.98% | -1.45% | 1.65% |
| CCC[C@H]1CN(C(=O)CCc2ccccc2C)C[C@@H]1N | -8.43% | -13.2% | -6.57% | -19.4% | -14.6% |

| SMILES | activity change, negative = inhibition [1] | activity change, negative = inhibition [2] | activity change, negative = inhibition [3] | activity change, negative = inhibition [4] | activity change, negative = inhibition [5] |
| --- | --- | --- | --- | --- | --- |
| CCOC(=O)C12CC1/C(=N/O)c1ccccc1O2 (stereo not given) | -6.08% | 4.88% | -2.07% | -3.58% | 6.11% |
| Cc1ccc(CN2C(=O)c3ccc(-c4ccco4)n3CC2(C)C(=O)NCc2ccc(Cl)cc2)cc1 (stereo not given) | -5.91% | -36.7% | 0.831% | -12.4% | -4% |
| Cc1cccc(-c2n[nH]n3c2nc(=O)c2ccc(C(=O)NC4CCCCC4)cc23)c1 | -3.36% | 0.53% | -5.6% | -3.14% | -4.59% |
| COC(=O)C1=CO[C@@H](O[C@@H]2O[C@H](CO)[C@@H](O)[C@H](O)[C@H]2O)[C@@H]2[C@@](C)(O)[C@@H](OC(=O)/C=C/c3ccc(O)cc3)C[C@]12O | -1.87% | 1.25% | 10.8% | -12.7% | -7.13% |
| O=C(Cn1nc2n(Cc3ccc(F)cc3)c(=O)c3ccccc3n2c1=O)Nc1cccc(Cl)c1 | 1.15% | 0% | 5.97% | -3.94% | -2.34% |
| O=C(NC1CCN(c2cc(-c3ccc(Cl)cc3)[nH]n2)C1)c1ccc(Br)o1 (stereo not given) | -13.1% | -4.61% | -2.22% | -16.7% | -7.18% |
| CC(=O)N1CCN(c2nc3c(s2)CC(C(=O)Nc2cc(Cl)ccc2F)CC3)CC1 (stereo not given) | -4.68% | -3% | -0.309% | -4.01% | -2.09% |
| O=C(O)CC1C(=O)NCCN1C1Cc2ccccc2C1 (stereo not given) | -2.39% | 1.82% | 0.965% | -1.7% | -17.3% |
| Cc1nc(-c2cn3c(n2)-c2ccc(-c4cnn(C(C)(C)C(N)=O)c4)cc2OCC3)n(C(C)C)n1 | -6.71% | -3.45% | 4.04% | -18.1% | 1.09% |
| Cc1nc(N)ncc1-c1nc(N2CCOCC2)c2sc(C(C)(C)O)cc2n1 | -12.6% | -5.02% | -7.6% | -26% | -14.6% |
| COc1ccc(-c2nc3cnccn3c2NCCC(=O)N2CCCC(C)C2)cc1 (stereo not given) | -13.8% | -12.5% | -17.2% | -25% | -10.8% |
| OC[C@@]1(O)CO[C@H](OC[C@H]2O[C@@H](OC(CCCCc3ccc(O)cc3)CCc3ccc(O)cc3)[C@H](O)[C@@H](O)[C@@H]2O)[C@@H]1O (stereo not given in full) | 1.41% | 9.16% | 10.4% | -2.46% | 8.6% |
| CCc1ccc(S(=O)(=O)c2nnn3c2nc(N2CCN(C)CC2)c2cc(Cl)ccc23)cc1 | -25.7% | 0.051% | -5.07% | -8.86% | -6.28% |
| CCCN1C(=O)c2cc(C(=O)NCCCOC)nn2CC1(C)C(=O)NC1CCCC1 (stereo not given) | 4.82% | 0% | 4.25% | 1.43% | 3.08% |
| N#Cc1cc(-c2n[nH]c(-c3ccncc3)n2)ccn1 | 1.85% | 6.37% | 12.1% | -4.95% | 8.48% |
| CCn1ccnc1CC1COc2ccccc2O1 (stereo not given) | -3.87% | 1.67% | -1.91% | -10.1% | -0.513% |
| CC1(C(=O)NC2CCCCCCC2)Cn2c(cc3occc32)C(=O)N1CCc1ccc(Cl)cc1 (stereo not given) | -6.78% | 1.37% | -0.637% | -5% | -2.77% |
| COc1ccccc1CNS(=O)(=O)c1cc2c(cc1Cl)n(C)c(=O)n2C | -1.48% | 4.03% | -5.01% | -8.18% | -5.08% |
| CC(C)NC(=O)c1ccc2c(=O)n(Cc3ccccc3)c3nn(Cc4cccc(F)c4)c(=O)n3c2c1 | 9.39% | 0.48% | 7.43% | 11.7% | 9.4% |
